Out of some 360,000 compounds screened, about 7,500 (2.1%) were called active. Inconclusive results, whose numbers are uncertain, are shown with a selection of clear calls. The call rests on the fitted dose curve; in most records, active means well fitted cell-killing curve with a large enough effect; inconclusive means small, poorly fitted or top-dose-only effect, or effect the other way, or another doubt; inactive means no such curve, though single readings can be large or run the other way. Potencies of inconclusive entries are left out as doubtful fits.
test: qHTS for induction of synthetic lethality in tumor cells producing 2HG: qHTS for the HT-1080-IDH1KD cell line; conditions: HT-1080 IDH1 knockdown viability, ATP luminescence, 48 h; activity, negative = toxicity: at 46.1 µM (top of the series) unless noted;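 on activity, negative = toxicity: 0% = DMSO wells and -100% = cell-free medium wells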
Outline: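 In this qHTS, HT-1080 cells depleted of IDH1 are exposed for 48 h at 37 °C to compound titrations. Toxicity is scored from CellTiter-Glo luminescence, with DMSO as full viability and medium alone as none.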
Potency means the concentration at half of the fitted maximal effect; tags describe the fitted curve by direction and shape.

SMILES | activity, negative = toxicity | Potency
Cc1nn(-c2ccccc2)c(N2CCCC2)c1/C=N/NC(=O)C1CC1 | inconclusive: -17.1% [cytotoxic] | –
O=C(NNc1ccc(F)cc1F)C1CCC1 | – | active: 4.61 µM
COc1ccc(NC(=O)COC(=O)c2c3c(nc4ccccc24)CCCC3)cc1Cl | – | inconclusive [cytotoxic, single point]
CSc1nnc(C(C)c2ncc(C(F)(F)F)cc2Cl)n1C (stereo not given) | – | inactive
Cc1cc(NC(=O)c2ccc3c(c2)OCO3)ccc1NC(=O)c1ccccc1 | – | inconclusive [cytotoxic, single point]
COc1cccc(C(=O)NC2CCN(C(=O)N3c4ccccc4Sc4ccccc43)CC2)c1 | – | inconclusive [cytotoxic, single point]
CC1=C(O)C(=O)C(c2c(C)cc(C)c(Br)c2C)=C(O)C1=O | – | inconclusive [cytotoxic, single point]
O=c1cc(-c2ccc([N+](=O)[O-])cc2)c2ccc(O)cc2o1 | – | inconclusive [cytotoxic, partial curve, poor fit]
Cc1ccccc1-c1nn(-c2ccc(F)cc2F)cc1CNCCCN(C)C | – | inconclusive [cytotoxic, single point]
Cc1cccc2c(-c3ccccc3)cc(=O)[nH]c12 | – | inconclusive [cytotoxic, single point]
CCOC(=O)/C(=N\Nc1ccc(Cl)cc1)c1csc(Nc2ccccc2)n1 | – | inconclusive [cytotoxic, single point]
C#C[C@]1(O)CC[C@H]2[C@@H]3CCc4cc(O)ccc4[C@H]3CC[C@@]21C | – | active: 20.6 µM
CCCCN(CCCC)CCC(O)c1cc2c(Cl)cc(Cl)cc2c2cc(C(F)(F)F)ccc12 (stereo not given) | – | active: 20.6 µM
COc1cccc(CN(C)C(=O)c2cccc(S(=O)(=O)N3CCN(c4ccccc4)CC3)c2)c1OC | – | inactive
COc1ccc(C(NC(=O)C2CCN(Cc3ccc(Oc4ccccc4)cc3)CC2)c2ccccc2C)cn1 (stereo not given) | – | inconclusive [cytotoxic, full curve]
O=C1NC[C@H](Cc2ccccc2)N(C[C@H]2CCCN2C[C@H](Cc2ccccc2)N2C[C@H](Cc3ccccc3)N(CC3CCCCCC3)C(=O)C2=O)C1=O | – | inconclusive [cytotoxic, single point]
COc1ccccc1-n1c(SCC(=O)N2CCCC2)nnc1-c1ccccc1 | – | inactive
Oc1cccc(/C=N/Nc2cccc3cccnc23)c1 | – | inconclusive [cytotoxic, single point]
Cc1ccc2cc(NC(=O)c3ccccc3C)ccc2n1 | – | inactive
CCOC(=O)c1ccc(NC(=S)NN2CCOCC2)cc1 | – | inactive
NC(N)=N/N=C/c1ccc(OCc2ccccc2)c(OCc2ccccc2)c1 | – | active: 18.4 µM
CCc1ccc(-c2cc(C)no2)cc1S(=O)(=O)N1CCOc2ccc(C)cc21 | – | inconclusive [cytotoxic, single point]
CC12CCC(C(=O)OC3CCCCC3)(OC1=O)C2(C)C (stereo not given) | – | inactive

SMILES | activity, negative = toxicity | Potency
COCCN(Cc1ccc(C)cc1)C(=O)[C@H]1O[C@@H](n2ccc(=O)[nH]c2=O)[C@H](O)[C@@H]1O | – | inactive
CCOC(=O)C(C)Sc1nc2c([nH]c3ccccc32)c(=O)n1C (stereo not given) | – | inconclusive [cytotoxic, single point]
O=[N+]([O-])c1c(NCCCO)cc(SCc2ccco2)c2nonc12 | – | inconclusive [cytotoxic, single point]
CCC(NC(=O)c1cccc(Cn2cc([N+](=O)[O-])cn2)c1)c1ccc(C(C)C)cc1 (stereo not given) | – | inconclusive [cytotoxic, single point]
O=C(O)CCC(=O)Nc1sc2c(c1C(=O)Nc1ccccc1)CCCCC2 | – | inconclusive [cytotoxic, single point]
O=S(=O)(O)c1ccc2c(c1)C(C(Cl)(Cl)Cl)OC(C(Cl)(Cl)Cl)O2 (stereo not given) | – | inactive
COc1ccc(-c2nc(NC(=O)c3[nH]c(C)c(C(C)=O)c3C)sc2C)cc1 | – | inconclusive [cytotoxic, single point]
CCOC(=O)c1c(S(=O)(=O)N2CCCC(C(=O)Nc3ccc(C)cn3)C2)c(C)n(C)c1C (stereo not given) | – | inactive
COc1ccc2[nH]c(C)c(C(=O)CN3CCc4cc(OC)c(OC)cc4C3)c2c1 | – | inconclusive [cytotoxic, partial curve, poor fit]
NC(=S)NN=Cc1nccc2c(N)cccc12 | – | inconclusive [cytotoxic, full curve]
CC1(C)OC2CC3C4CCC5=CC(=O)CCC5(C)C4(F)C(O)CC3(C)C2(C(=O)CO)O1 (stereo not given) | – | inconclusive [rising, full curve, poor fit]
CCC(=O)NNC(=O)CCC(=O)Nc1ccc(C)cc1C | – | inconclusive [rising, single point]
CC1(C(=O)Nc2ccc(Cl)c(C(F)(F)F)c2)Cc2c(-c3ccc(C(N)=O)cc3)ccnc2O1 (stereo not given) | – | active: 16.4 µM
CCC(c1nnnn1Cc1cccs1)N1CCN(c2nc3ccccc3s2)CC1 (stereo not given) | – | inconclusive [cytotoxic, single point]
O=C(c1ccc(Cl)cc1)c1c[nH]c(C(=O)NNc2ccccc2)c1 | – | active: 5.17 µM
COc1ccccc1NC(=S)NCC1CCCCC1 | – | inactive
CCOCCCn1c(SCC(=O)Nc2ccc(C(N)=O)cc2)nc2ccccc2c1=O | – | inconclusive [cytotoxic, single point]
COC(=O)c1ccc(NC(=S)NCCC2=CCCCC2)cc1 | – | inconclusive [cytotoxic, single point]
O=C(Nc1ccc2c(c1)CCCN2C(=O)c1cccs1)c1ccccc1 | – | inconclusive [cytotoxic, partial curve]
Cc1c(C(=O)C(=O)N2c3ccc(F)cc3CCC2C)c2ccccc2n1C (stereo not given) | – | active: 2.31 µM
Cc1cc(N/N=C/c2ccncc2)nc2ccccc12 | – | inactive
CCCN1CN(Cc2ccccc2)CNC1=S | – | inactive

Source: PubChem BioAssay AID686971 (National Center for Advancing Translational Sciences (NCATS), 2013)
